We go through 47 molecules from PubChem BioAssay (NCI).

“And” between values parts separate entries of the source, which are not always exact repeats. Identical values can stand only once.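 Interpolation was linear, between the two tested concentrations surrounding the appropriate level; five concentrations were tested over 48 hours in 96-well plates. GI50 is the concentration that inhibits growth by half. At the TGI there is no net growth.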 A value given as a limit tells only on which side of the number the result lay.

For the assay, the system named is NCI-H322M lung. Put plainly: growth of human tumour cells (NCI), 48 h.
On to `CS(=O)(=O)OCCCCOS(C)(=O)=O`, for which the GI50 was > 905 µM and the TGI is > 1000 µM.

On to `Cc1cc2nn(C3CCCCO3)nc2cc1C` (stereo unspecified), for which the TGI was > 100 µM.

In the case of `CC[C@]12C=CCN3CC[C@@]4(c5ccc(OC)cc5N(C)[C@H]4[C@@](O)(C(=O)OC)[C@@H]1OC(=O)CCCC[P+](c1ccccc1)(c1ccccc1)c1ccccc1)[C@@H]32`, the GI50 was 3.33 µM and the TGI is 14 µM.

On to `O=C(CC(O)c1cccnc1)CC(O)c1cccnc1` (stereo unspecified), for which the TGI came to 32.9 µM.

As for `CC(/C=C/c1ccccc1)=N\N=C(C)\C=C\c1ccccc1`, the TGI was > 100 µM.

Consider `Cc1cccc(NC(N)=S)c1`, for which the TGI is > 100 µM.

In the case of `CC(=O)N(C(=O)CC(=O)NNCc1ccccc1Cl)c1ccc(Cl)cc1`, the TGI is > 10 µM.

Turning to `CCOC(=O)C1Nc2ccc([N+](=O)[O-])cc2[C@H]2OCC[C@@H]12` (stereo partly specified), the TGI was > 100 µM.

In turn, `SCc1ccc(-c2ccc(CS)cc2)cc1` returned a TGI of 15.4 µM.

On to `O=C(c1ccc(-c2ccccc2)cc1)N(Cc1cccnc1)C(=S)N(Cc1cccnc1)C(=O)c1ccc(-c2ccccc2)cc1`, for which the TGI was > 100 µM.

Turning to `O=P1(N(CCCl)CCCl)Oc2c(Cl)cc(Cl)c(Cl)c2Cc2c(Cl)c(Cl)cc(Cl)c2O1`, the TGI is > 100 µM.

`COc1ccc(-c2cc(=O)c3c(OC)c(O)c(OC)cc3o2)cc1`: the TGI was > 100 µM.

For `O=c1ncc(I)c[nH]1`, the GI50 is > 100 µM and the TGI was > 100 µM.

In the case of `O=S(Nc1ccccc1)c1ccccc1Oc1ccccc1` (stereo unspecified), the TGI is > 100 µM.

`O=C1CC(C(O)C(O)C(O)CO)CC(=O)N1` (stereo unspecified): the TGI was > 100 µM.

Take `Clc1ccc(/C=c2\nc(-c3ccccc3)n3c2nc2ccccc23)cc1`: the TGI was > 100 µM.

For the molecule `C[C@]12CC[C@H](OC(=O)Cc3ccc(N(CCCl)CCCl)cc3)CC1CC[C@@H]1C2CC[C@]2(C)NC(=O)CCC12` (stereo partly specified), the TGI turned out to be 30.1 µM.

On to `COc1ccc2c3c(ccc2c1)NC(C(=O)O)CC3` (stereo unspecified), for which the TGI is > 100 µM.

Consider `CC1(C)CCCC2(C)C3=C(CCC12)C(=O)OC3` (stereo unspecified), for which the TGI was > 100 µM.

With `O=C(O)COc1cc(-c2ccccc2F)nc2cc3c(cc12)OCO3`, the TGI is > 100 µM.

Molecule `O=[N+]([O-])c1ccc(CSc2c3ccccc3nc3ccccc23)cc1` came in with a TGI of 22.7 µM.

Turning to `CCCCCCCCCCCCCCCCSS(C)(=O)=O`, the TGI was > 100 µM.

Regarding `COc1cc(/C=C2/CCCc3ccccc3C2=O)cc(OC)c1OC`, the TGI was > 59.7 µM.

Turning to `C#CCn1c(=O)c(I)cn(/C(=C\C(=O)OCC)C(=O)OCC)c1=O`, the TGI is 30.4 µM.

`CC(/C=C/C=C\C=C\C=C(/C)C(=O)NC(C)CO)=C\C(C)C(O)/C(C)=C/C(C)CCc1ccccc1` (stereo unspecified) came in with a TGI of 46 µM.

On to `CC1(C)[C@H]2CC[C@](C)(C2)[C@]1(S)Cc1ccccn1`, for which the TGI is > 100 µM.

Consider `CC1OC(OC23C(=O)CC(C)(O)CC2(O)C=CC2=C3C(=O)c3ccc(C4CC(OC5CCC(OC6CC(O)C(O)C(C)O6)C(C)O5)C(O)C(C)O4)c(O)c3C2=O)CCC1O` (stereo unspecified), for which the TGI was 66.5 µM and 64.1 µM.

In the case of `COC(=O)c1c(O)ccc2c1c1cc3ccccc3c(O)c1n2Cc1ccccc1Cl`, the TGI is > 100 µM.

Turning to `N=C(N)c1ccc(CS(=O)(=O)F)cc1`, the GI50 was > 100 µM and the TGI is > 100 µM.

`COc1ccc2c(c1)C(=O)c1c-2n(CCCCl)c(=O)c2cc([N+](=O)[O-])ccc12`: the GI50 was 0.0788 µM and the TGI worked out at 0.681 µM.

As for `CC(=O)Oc1c(C)cc2c(c1C)C(C)(C)CN2C(=O)C(C)(C)C`, the TGI is > 100 µM.

Consider `CN(C)c1ccc(/C=N/NC(=O)CSc2nc3sc4c(c3c(=O)n2-c2ccccc2)CCCCC4)cc1`, for which the GI50 is 4.22 µM and the TGI is > 100 µM.

On to `COc1ccc(C(=O)NNC(=O)c2nsc3ccccc23)cc1`, for which the TGI was > 100 µM.

Regarding `Nc1nc(Cl)cc(NCC2(CO)CC(CCCc3ccccc3)C2)n1` (stereo unspecified), the TGI was > 100 µM.

With `Cc1cc(NCCCNc2ccnc3cc(Cl)ccc23)nc(Nc2ccc(C(=O)N3CCCCC3)cc2)n1`, the GI50 was 2.58 µM and the TGI came to 7.52 µM.

Turning to `C/C(=N\NC(=O)c1cccc(S(=O)(=O)N2CCN(C)CC2)c1)c1cc(Cl)ccc1O`, the GI50 was 0.47 µM and the TGI is > 100 µM.

`Cc1ccc(N/C(=C(/C(Cl)=C(Cl)Cl)[N+](=O)[O-])n2nnc3ccccc32)cc1` returned a TGI of 43.6 µM.

`COc1ccc(OC)c2sc(N3C(=O)/C(=C/c4ccc(SC)cc4)N=C3c3ccccc3)nc12`: the TGI was > 100 µM.

`O=C1CSC(c2c[nH]c3ccccc23)N1c1cccc([N+](=O)[O-])c1` (stereo unspecified): the TGI is > 100 µM.

As for `CC1OC1P(=O)(O)O` (stereo unspecified), the TGI was > 100 µM.

`CSC1=NC(=O)CCN1C1OCC(OC(C)=O)C(OC(C)=O)C1OC(C)=O` (stereo unspecified): the TGI was > 31.6 µM.

For `CC1=CC[C@@H]2[C@@H](CC[C@@]2(C)O)C(C)(C)[C@H]1CC[C@@H]1[C@@]2(C)CC[C@@H](O)C(C)(C)O[C@@H]2CC[C@]1(C)O`, the TGI was 50 µM.

For the molecule `Nc1nc(N)c2c(CCc3ccc(C(=O)N[C@@H](CCC(=O)O)C(=O)O)cc3)ccnc2n1`, the TGI was > 100 µM.

As for `CO[C@H](C(=O)O[C@H]1C(=O)N2CCC3CCC1C32C)c1ccccc1` (stereo partly specified), the TGI is > 100 µM.

In the case of `O=C1C2c3[nH]c4ccccc4c3C3CCC(c4ccccc4)CC3C2C(=O)N1c1ccccc1` (stereo unspecified), the TGI is > 100 µM.

As to `CN(C)C=O.CN(C)C=O.CN1C(C(=O)Nc2ccccn2)=C([O-])c2ccccc2S1(=O)=O.CN1C(C(=O)Nc2ccccn2)=C([O-])c2ccccc2S1(=O)=O.[Cu+2]`, the GI50 is 32.9 µM and the TGI is 79.2 µM.

For `Clc1cc2nc[nH]c2cc1Cl`, the TGI was > 100 µM.
